# Test results from paper PMC2180168 (BMC Pharmacology, 2007).
# System: SCLC6 small cell lung cancer xenografted in nude mice
# Assay: SCLC6 xenograft tumor growth in nude mice
# Format: in vivo
# Conditions: SCLC6-bearing nude mice; etoposide 12 mg/kg ip days 1-3, with or without STI571 70 mg/kg ip days 1-3 and fluconazole 40 mg/kg/d ip days 1-3; started day +6 after transplantation; etoposide vs control, combinations vs etoposide
smiles,measurement,value
COc1cc([C@@H]2c3cc4c(cc3[C@@H](O[C@@H]3O[C@@H]5CO[C@@H](C)O[C@H]5[C@H](O)[C@H]3O)[C@H]3COC(=O)[C@H]23)OCO4)cc(OC)c1O [etoposide],inhibition of SCLC6 tumor growth (relative tumor volume),brief but non-significant inhibition
